From the supplement of paper PMC9446081 come the findings set out here.

Out of some 39,000 compounds screened, about 220 (0.56%) showed activity. Some of the results follow.
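Note: static incubation at 37 °C against the wild-type strain, values averaged over two biological replicates.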

The experiment has as its system Escherichia coli K-12 BW25113. The experiment can be described thus: relative growth (OD600 normalised to plate interquartile mean) (fraction); higher = less growth inhibition, active = 0.2 or less. Conditions: 50 µM; LB; incubation time: overnight (16-24 h).
Consider `CCCNC(=O)N1C[C@@H](O)COC[C@H]2O[C@H](CC(=O)N3CCOCC3)CC[C@@H]21`, for which the relative growth is inactive: 0.918.
As for `COc1ccc([Si](C)(C)[C@H]2[C@H](CC(=O)N3Cc4ccccc4C[C@H]3CO)O[C@@]3(C(=O)N(Cc4ccc(N5CCOC5=O)cc4)c4ccccc43)[C@@H]2C)cc1`, the relative growth was inactive: 0.986.
With `O=C(CN1C(=O)c2ccccc2C1=O)N1CCNCC1` the figure was inactive: 0.92; with `O=c1cc(O)nc[nH]1`, inactive: 1.01.
Then `O=C(O)CCc1n[nH]c(=O)[nH]c1=O`, with inactive: 0.995.
As for `COc1ccc(NC(=O)N(C)C[C@H]2Oc3ccc(NS(C)(=O)=O)cc3C(=O)N([C@@H](C)CO)C[C@H]2C)cc1`, the relative growth was inactive: 0.929.
In the case of `C[C@@H]1CCCCO[C@H](CN(C)C(=O)Cc2ccccc2)[C@@H](C)CN([C@@H](C)CO)C(=O)c2cc(NC(=O)C3CCCCC3)ccc2O1`, the relative growth was inactive: 0.99.
Then `C[C@@H]1CN([C@H](C)CO)C(=O)Cc2cc(NC(=O)Nc3cccc4ccccc34)ccc2O[C@H]1CN(C)C(=O)Nc1ccc(F)cc1`, with inactive: 1.01; and `C[C@@H]1CCCCO[C@H](CN(C)Cc2ccccc2)[C@H](C)CN([C@@H](C)CO)C(=O)c2cc(NC(=O)Nc3ccccc3)ccc2O1`, with inactive: 0.997.
As for `COc1cccc(S(=O)(=O)N(C)C[C@@H]2Oc3cc(C#CCC(C)C)ccc3S(=O)(=O)N([C@@H](C)CO)C[C@H]2C)c1`, the relative growth is inactive: 0.993.
With `C[C@H]1CN([C@@H](C)CO)C(=O)c2cccc(NS(=O)(=O)c3ccc(F)cc3)c2O[C@H]1CN(C)Cc1ccncc1` the figure was inactive: 0.989; with `CCS(=O)(=O)N1C[C@]2(C1)CN([C@H](CO)c1[nH]c3cc(ccc3c12)OC)S(=O)(=O)c1ccc(cc1)C`, inactive: 1.03; with `Cc1cccc(C)c1OCC(=O)NC(Cc1ccccc1)C(O)CC(Cc1ccccc1)NC(=O)C(C(C)C)N1CCCNC1=O` (stereo not drawn), inactive: 1.02.
Regarding `NCCCC[C@H](NC(=O)[C@@H](NC(=O)[C@H](Cc1c[nH]c2ccccc12)NC(=O)[C@H](CCCCN)NC(=O)[C@H](CCCCN)NC(=O)[C@H](Cc1c[nH]c2ccccc12)NC(=O)[C@H](Cc1c[nH]c2ccccc12)NC(=O)[C@H](CCCCN)NC(=O)[C@@H](N)CCCCN)C(c1ccccc1)c1ccccc1)C(N)=O`, the relative growth was active: 0.149.
For `C[C@@H]1CN([C@H](C)CO)C(=O)c2cccc(NC(=O)C3CC3)c2O[C@@H]1CN(C)Cc1ccc2c(c1)OCO2`, the relative growth is inactive: 0.977.
On to `O=C(C[C@H]1CC[C@@H]2[C@H](COC[C@@H](O)CN2S(=O)(=O)c2ccc(Cl)cc2)O1)NCCN1CCCC1`, for which the relative growth was inactive: 0.975.
In the case of `C[C@@H]1CN([C@H](C)CO)C(=O)c2cccc(NC(=O)C3CCCCC3)c2O[C@H]1CN(C)C(=O)Nc1ccc(C(F)(F)F)cc1`, the relative growth was inactive: 0.954.
With `C[C@H](CO)N1C[C@H](C)[C@@H](CN(C)Cc2ccccc2)OCCCC[C@H](C)Oc2ccc(NC(=O)CCC(F)(F)F)cc2C1=O`, the relative growth is inactive: 0.999.
Turning to `C[C@H](CO)N1C[C@H](C)[C@H](CN(C)S(=O)(=O)c2ccc(C#N)cc2)Oc2ncc(C#Cc3ccccc3)cc2C1=O`, the relative growth is inactive: 1.03.
As to `CC(C)NC(=O)Nc1ccc2c(c1)CC(=O)N([C@@H](C)CO)C[C@H](C)[C@H](CN(C)S(=O)(=O)c1cn(C)cn1)O2`, the relative growth is inactive: 0.985.
Turning to `COC1=CC(C)C2CC3OC(=O)CC4C(C)=C(OC)C(=O)C(C2(C)C1=O)C34C` (stereo not drawn), the relative growth was inactive: 1.06.
On to `Cn1cnc(S(=O)(=O)N[C@H]2C=C[C@H](CC(=O)Nc3ccccc3)O[C@@H]2CO)c1`, for which the relative growth is inactive: 0.992.
Take `Cc1ccc(S(=O)(=O)N(C)C[C@@H]2OCCCC[C@H](C)Oc3ccc(NC(=O)Nc4ccc(F)cc4)cc3C(=O)N([C@@H](C)CO)C[C@H]2C)cc1`: the relative growth is inactive: 1.02.
Consider `C[C@H](CO)N1C[C@H](C)[C@H](CN(C)Cc2ccc(-c3ccccc3)cc2)Oc2c(NC(=O)Nc3ccc(C(F)(F)F)cc3)cccc2C1=O`, for which the relative growth is inactive: 1.03.
For `Cc1ccc(S(=O)(=O)N(C)C[C@@H]2Oc3ccc(NS(=O)(=O)c4cccs4)cc3C(=O)N([C@@H](C)CO)C[C@H]2C)cc1`, the relative growth is inactive: 1.03.
Consider `COCC#Cc1cnc2c(c1)C(=O)N([C@@H](C)CO)C[C@H](C)[C@@H](CN(C)C(=O)Nc1cc(F)ccc1F)O2`, for which the relative growth is inactive: 0.98.
Regarding `NC(=S)N/N=C/c1ccncc1`, the relative growth is inactive: 0.961.
With `CO[C@H]1CN(C)C(=O)c2ccc(NS(C)(=O)=O)cc2OC[C@H](C)N(C(=O)C2CCCCC2)C[C@@H]1C` the figure was inactive: 0.962.
For the molecule `O=C(OC[C@]12O[C@H]1[C@@H](O)[C@@H]1C=CO[C@@H](O[C@@H]3O[C@H](CO)[C@@H](O)[C@H](O)[C@H]3O)[C@@H]12)c1ccccc1`, the relative growth was inactive: 1.01.
With `C[C@@H]1CN([C@@H](C)CO)C(=O)c2cccc(NS(=O)(=O)c3ccc(F)cc3)c2O[C@@H]1CN(C)S(=O)(=O)c1cccs1`, the relative growth was inactive: 0.957.
Take `C=CC[C@H](CC(=O)NCCO)C(=O)N[C@@H](COC(=O)[C@H](CC=C)CC(=O)OC(C)(C)C)Cc1c[nH]c2ccccc12`: the relative growth was inactive: 0.99.
With `Cc1c(Cl)cccc1Nc1ncccc1C(=O)O` the figure was inactive: 1.01; with `COc1ccccc1C#Cc1ccc2c(c1)O[C@@H](CN(C)Cc1cccnc1)[C@@H](C)CN([C@H](C)CO)S2(=O)=O`, inactive: 1.03; with `CN1C(=O)c2cc(NS(=O)(=O)c3ccc(F)cc3)ccc2OC[C@@H]2O[C@@H](CC(=O)NCC(F)(F)F)CC[C@@H]21`, inactive: 0.946.
For the molecule `C[C@@H]1CN([C@@H](C)CO)C(=O)c2cccc(NC(=O)c3cnccn3)c2O[C@H]1CN(C)S(=O)(=O)c1ccc(F)cc1`, the relative growth is inactive: 0.843.
As for `C[C@@H]1CN([C@@H](C)CO)C(=O)c2cc(NC(=O)c3ccncc3)ccc2O[C@H]1CN(C)Cc1ccc(-c2ccccc2)cc1`, the relative growth was inactive: 0.909.
For `Nc1nonc1C(=O)NCc1ccco1`, the relative growth was inactive: 0.995.
As to `CC=Cc1ccc2n(c1=O)C[C@@H]1[C@@H](CO)[C@H](C(=O)NC3CCC3)N(S(C)(=O)=O)[C@H]21`, the relative growth was inactive: 1.03.
